# According to PubChem BioAssay AID1461 (National Center for Advancing Translational Sciences (NCATS), 2008):
# The campaign covered roughly 220,000 compounds. About 2,300 (1%) were called active. This list was built around the results that the source calls inconclusive (neither active nor inactive); the mix of calls is not that of the screen. The call rests on the fitted dose curve; in most records, active means well fitted inhibition curve with a large enough effect; inconclusive means small, poorly fitted or top-dose-only effect, or effect the other way; inactive means no such curve, though single readings can be large or run the other way. Potencies of inconclusive entries are left out as doubtful fits.
# Target: Neuropeptide S receptor (Homo sapiens) (UniProt Q6W5P4)
# Assay: qHTS Assay for Antagonists of the Neuropeptide S Receptor: cAMP Signal Transduction; further: nearly all actives have a fitted effect of over 50% in size
# Details: CHO-NPSR cells, cAMP TR-FRET, antagonist mode; activity change, negative = inhibition: at 38.3 µM (top of the series) unless noted
# On the % scale 0 is the no-effect control and ±100 the full control effect; potency means the concentration at half of the fitted maximal effect; tags describe the fitted curve by direction and shape.
# UniProt Q6W5P4, sequence (Q6W5P4 whole entry, looked up): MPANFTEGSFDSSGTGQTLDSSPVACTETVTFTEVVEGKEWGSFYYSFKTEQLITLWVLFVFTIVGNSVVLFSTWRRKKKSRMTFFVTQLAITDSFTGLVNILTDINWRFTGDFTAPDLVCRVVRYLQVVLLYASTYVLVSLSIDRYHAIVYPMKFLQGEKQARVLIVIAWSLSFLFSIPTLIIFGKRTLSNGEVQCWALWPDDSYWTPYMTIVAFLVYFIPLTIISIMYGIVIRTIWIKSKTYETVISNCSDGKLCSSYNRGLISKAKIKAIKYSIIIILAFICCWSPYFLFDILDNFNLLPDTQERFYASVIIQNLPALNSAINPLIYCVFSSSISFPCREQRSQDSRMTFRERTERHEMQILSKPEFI
SMILES,"activity change, negative = inhibition",Potency
COc1ccc(CC(=O)Nc2oc(-c3ccccc3)c(-c3ccccc3)c2C#N)cc1OC,inactive: 4.72% [at 46.1 µM],
O=C(NCc1ccco1)c1scc2c1OCCO2,inactive: -12.3% [at 46.1 µM],
CCOC(=O)c1ccc(Nc2nnc3nc(C)cc(C)n23)cc1,inactive: 16.4% [at 46.1 µM],
COc1cc(NS(C)(=O)=O)ccc1Nc1c2ccccc2nc2ccccc12,,"inconclusive [inhibitor, partial curve]"
CCOc1cc(C(=O)N2CCc3cc(OC)c(OC)cc3C2)ccc1OC(F)F,,"inconclusive [activator, full curve]"
COC(=O)CC1(C(=O)OC)Oc2ccc(Br)cc2C(=O)N1c1ccc(Br)cc1Cl (stereo not given),,"inconclusive [activator, partial curve]"
Cc1ccc(C)c(N(CC(=O)Nc2cc(Cl)ccc2Oc2ccccc2)S(C)(=O)=O)c1,,"inconclusive [inhibitor, single point]"
Cc1sc(NC(=O)C2CCCO2)c(C(N)=O)c1C (stereo not given),inactive: 8.71%,
CSc1oc(-c2ccc(F)cc2)nc1S(=O)(=O)c1ccccc1,inactive: -34.1%,
COC(=O)C1=C(C)N=C2SC(C)C(=O)N2C1c1ccc(C(=O)OC)cc1 (stereo not given),,"inconclusive [inhibitor, partial curve, poor fit]"
COC(=O)c1cc(NC2c3ncccc3C(=O)N2Cc2ccccc2)cc(C(=O)OC)c1 (stereo not given),,"inconclusive [inhibitor, single point]"
COc1ccc(-c2nnc3ccc(SCC(=O)NCc4ccco4)nn23)cc1OC,,"inconclusive [inhibitor, single point]"
N#Cc1nc(-c2ccccc2F)oc1NCCc1ccccc1,inactive: -29.8% [at 46.1 µM],
CC/C(=C\C1CCCCC1)C(NP(=O)(c1ccccc1)c1ccccc1)c1ccccc1 (stereo not given),,"inconclusive [inhibitor, single point]"
CCCCCn1c(SCCC(C)C)nc2c1c(=O)[nH]c(=O)n2C,,"inconclusive [inhibitor, single point]"
Cc1ccccc1-n1c(SCc2c(C)noc2C)nnc1-c1cccnc1,,"inconclusive [inhibitor, single point]"
COc1ccc(NC(=O)C(F)(OC)C(F)(F)F)c(OC)c1 (stereo not given),,"inconclusive [inhibitor, single point]"
O=C(Nc1ccn(-c2ccccc2)n1)c1ccc(S(=O)(=O)N2CCCCCC2)cc1,,"inconclusive [inhibitor, partial curve]"
Cc1cc(N2CCCC2)ccc1/C=C1\NC(=S)N(C)C1=O,,"inconclusive [activator, single point]"
O=c1c(-c2ccccc2)coc2cc(O)ccc12,,"inconclusive [inhibitor, single point]"
CC(C)OC(=O)c1nnc(Cc2ccc(F)cc2)o1,,"inconclusive [inhibitor, single point]"
O=c1c2c(nc3nc(NCc4cccc5ccccc45)[nH]n13)CCC2,inactive: 4.67%,
CCOc1ccc(NC(=O)COC(=O)C2(C)CC2(Cl)Cl)c([N+](=O)[O-])c1 (stereo not given),,"inconclusive [inhibitor, single point]"
CCOC(=O)c1cc(-c2ccc(F)cc2)n(CCC(=O)NC2CCN(Cc3ccccc3)CC2)c1C,,"inconclusive [inhibitor, single point]"

SMILES,"activity change, negative = inhibition",Potency
Cc1onc(-c2c(F)cccc2Cl)c1C(=O)OCC(=O)NC(c1ccccc1)c1ccccc1,,"inconclusive [inhibitor, single point]"
O=c1[nH]c(NNC(=S)NCc2ccccc2)nc2c1C1(CCCCC1)Cc1ccccc1-2,,"inconclusive [inhibitor, single point]"
O=S(=O)(Nc1cccc2ncccc12)c1cccs1,,"inconclusive [inhibitor, partial curve]"
Cc1ccc(C(=O)N/C(=C\c2cccs2)C(=O)NCCc2c[nH]c3ccccc23)cc1C,,"inconclusive [inhibitor, partial curve]"
O=C(Nc1ccc2ccccc2c1)Nc1ccc2snnc2c1,,"inconclusive [inhibitor, single point]"
Cc1ccc(-c2csc3ncnc(SCC(=O)O)c23)cc1,,"inconclusive [inhibitor, single point]"
CCOc1cc(/C=N\NC(=O)Cc2ccccc2)ccc1OCC(=O)Nc1ccc(C)c(C)c1,,"inconclusive [inhibitor, single point]"
Oc1ccc(Cl)cc1-c1cc(-c2ccccc2)n[nH]1,,"inconclusive [inhibitor, single point]"
COCCN(CCOC)S(=O)(=O)c1ccc(C(=O)Nc2nnc(C)o2)cc1,,"inconclusive [inhibitor, single point]"
CC(C)C(=O)Nc1c2c(nc3c1CCC3)CCCC2,,"inconclusive [inhibitor, full curve, poor fit]"
O=C1c2ccccc2CCC12N=NCC2c1ccc(Br)cc1 (stereo not given),,"inconclusive [inhibitor, partial curve]"
Cc1ccc(NC(=O)CC2C(=O)N(Cc3ccccc3)C(=S)N2NC(=O)c2cccc(F)c2)c(C)c1 (stereo not given),,"inconclusive [inhibitor, single point]"
CCc1ccc(NC(=O)CNS(=O)(=O)c2c(C)noc2C)cc1,,"inconclusive [inhibitor, partial curve, poor fit]"
COc1ccc(/C=C2\C(=O)ON=C2c2cccc([N+](=O)[O-])c2)cc1,,"inconclusive [inhibitor, single point]"
CC1(C)OC(=O)C(=Cc2ccc[nH]2)C(=O)O1,inactive: -8.12%,
O=C(CSc1nnnn1-c1ccccc1)c1ccco1,inactive: 8.82%,
Cc1cc(C)nc(SCC(=O)N/N=C\c2sccc2C)n1,inactive: -10.3% [at 46.1 µM],
CC(=O)c1cc(C#N)c(SCC(=O)Nc2nccs2)nc1C,,"inconclusive [activator, single point]"
Clc1cccc(-c2cc3nc4c(c(NCc5ccco5)n3n2)CCCC4)c1,,"inconclusive [inhibitor, single point]"
S=c1nc[nH]c2c1ncn2C1CCCC1,inactive: -21.2%,
CCOC(=O)c1[nH]c2ccc(OCC)cc2c1NC(=O)CN1CCCC(C)C1 (stereo not given),,"inconclusive [inhibitor, full curve, poor fit]"
CCOC(=O)C(C)Oc1ncnc2cccc(F)c12 (stereo not given),inactive: 15.5%,
Cc1oc2c(c1C(=O)c1ccc(Cl)cc1)C(=O)C(=O)c1ccccc1-2,,"inconclusive [inhibitor, single point]"
COc1ccc(OCC(=O)Nc2cccc(-c3nc4ccccc4[nH]3)c2)cc1,,"inconclusive [inhibitor, partial curve]"

SMILES,"activity change, negative = inhibition",Potency
CCCc1ccc(Oc2c(-c3ccc(O)c(C)c3O)n[nH]c2C)cc1,,"inconclusive [inhibitor, single point]"
COc1ccc2[nH]cc(/C=C(/C#N)S(=O)(=O)c3ccccc3)c2c1,,"inconclusive [inhibitor, single point]"
Cn1c(=O)[nH]c2sc3c(c2c1=O)CC(C)(C)OC3,inactive: -10.4% [at 46.1 µM],
CCCn1c(=O)c2c(nc(Br)n2CCC)n(C)c1=O,inactive: -5.05% [at 46.1 µM],
COc1ccc2cc(S(=O)(=O)NCCCN3CCOCC3)ccc2c1,,"inconclusive [inhibitor, single point]"
Cc1ccc(N/C(N)=N/c2nc(C)cc(C)n2)cc1,inactive: 2.38%,
O=C(Nc1ccc2ccccc2c1)N1CCN(c2ncccc2C(F)(F)F)CC1,,"inconclusive [inhibitor, partial curve]"
CC(C)OC(=O)CSc1n[nH]c(-c2cccnc2)n1,inactive: -17% [at 46.1 µM],
CCOc1cc(-c2nc(-c3ccccc3)c(-c3cc([N+](=O)[O-])ccc3C)[nH]2)ccc1O,,"inconclusive [inhibitor, partial curve, poor fit]"
O=[N+]([O-])c1ccc(COc2cccnc2)cc1,,"inconclusive [inhibitor, single point]"
Cc1cccc(CN2CCc3c(OCC(=O)N4CCCc5ccccc54)cccc3C2=O)c1,inactive: -24.3%,
O=C(O)C1C2C=CC(O2)C1C(=O)Nc1ccccc1C(F)(F)F (stereo not given),inactive: -1.07% [at 46.1 µM],
CCN(CC)CCN(CC(=O)N(C1CCCCC1)C1CCCCC1)C(=O)c1cccnc1,,"inconclusive [activator, partial curve]"
Cc1[nH]n(-c2nc(-c3ccc(Cl)cc3)cs2)c(=O)c1N=Nc1ccc(O)cc1,,"inconclusive [activator, partial curve]"
O=C(O)c1ccc(COc2ccc3ccccc3c2/C=C2/NC(=O)N(c3ccccc3)C2=O)cc1,,"inconclusive [inhibitor, single point]"
CNCc1ccccc1Sc1ccc(OC)c(OC)c1,inactive: -3.97% [at 46.1 µM],
O=C(Nc1nc(-c2cc3ccccc3oc2=O)cs1)c1ccc(Br)o1,,"inconclusive [inhibitor, single point]"
COc1cc(O)cc(O)c1C(=O)/C=C/c1ccccc1,,"inconclusive [activator, single point]"
CCOc1ncccc1C(=O)Nc1cccc(-c2nc3cccnc3s2)c1,,"inconclusive [inhibitor, single point]"
CCOCCCN(C(=O)Nc1ccc(CC)cc1)C1CCN(C(C)=O)CC1,inactive: -1.21% [at 46.1 µM],
CN1C[C@@H]2C(c3ccc(Cl)nc3)C3(c4ccccc4)CC2(C3)[C@H]1c1ccccc1 (stereo not given in full),,active: 3.98 µM
CCCCOC(=O)C(C)c1c(C)[nH]c(=S)[nH]c1=O (stereo not given),,"inconclusive [inhibitor, full curve, poor fit]"
